Test results: ChEMBL document CHEMBL1201862, “PubChem BioAssay data set” (2004)
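Step 1: Grow cells in 96-well plates. Step 2: Expose to compound for 48 hours at 5 concentrations. Step 3: Interpolate endpoints linearly; if unreached, use highest concentration. GI50 = concentration required for 50% inhibition of growth.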 Activity calls are given as the source filed them. Cut-off read from the data, not from the text of the source: active = GI50 up to about 1.1 µM and inactive = higher. Bridge positions count the residues as written; N and C are the ends. Square brackets hold non-standard residues; d marks the D form. Peptide text beside a SMILES is read from it. * marks the point of attachment. ξ: configuration not given here. PhAc = O=C(Cc1ccccc1)*; ξP = O=C(O)C1CCCN1

What follows are compounds tested on NCI-H322M (assay: growth of human tumour cells (NCI), 48 h).

SMILES	GI50
Cc1cc(=O)n2nc(CCl)sc2n1	inactive: 17.1 µM
Cc1ccc(-c2cc(-c3ccco3)nc(N)n2)o1	inactive: > 100 µM
C/C=C/C(C#N)O[Si](C)(C)C (stereo not drawn)	inactive: > 100 µM
CC(C(=O)c1ccc(O)cc1)C1(O)C(=O)Nc2c(Cl)cc(Cl)cc21 (stereo not drawn)	inactive: > 100 µM
O=C(NC(Cc1ccccc1)P(=O)(O)c1ccccc1)OCc1ccccc1 (stereo not drawn)	inactive: > 100 µM
c1ccc(SCCc2ccncc2)cc1	inactive: > 100 µM
Cc1nc2c(O)cc3c4c([nH]c3c2nc1C)C(=O)CCC4	inactive: 2.79 µM
CC(C)C1COC(C(C)(C)C2=N[C@@H](C(C)C)CO2)=N1 (stereo partly drawn)	inactive: > 100 µM
Cc1cc2cc3cc(C)c(N)cc3nc2cc1N [ACRIDINE YELLOW]	active: 0.543 µM
O=C(O)CCC(=O)c1ccc2ccc3cccc4ccc1c2c34	inactive: 79.4 µM
O=S(=O)(O)C1=C2Sc3ccccc3N=C2c2ccccc2C1	inactive: 16.6 µM
CCOC(=O)C(NC(=O)CC)(N1CCN(c2cc3c(cc2F)c(=O)c(C(=O)O)cn3C2CC2)CC1)C(F)(F)F (stereo not drawn)	inactive: 46.6 µM
COc1c2c(c(CC=C(C)C)c3oc(=O)c(-c4ccc(O)cc4)c(O)c13)OC(C)(C)C=C2 [LONCHOCARPIC ACID]	inactive: 27.2 µM
O=c1[nH]nc(-c2ccc([N+](=O)[O-])cc2)[nH]1	inactive: > 100 µM
NS(=O)(=O)c1ccc(NC(=O)c2cccn3c(=O)c4ccccc4nc23)cc1	inactive: > 100 µM
COC(=O)C1CCC(=O)C(Sc2ccccc2)C1 (stereo not drawn)	inactive: > 100 µM
CNC(C)Cc1ccc(O)cc1 (stereo not drawn)	inactive: > 100 µM
NC1=NC2=C(CCCC2)C(c2cccs2)S1 (stereo not drawn)	inactive: > 100 µM
O=S(=O)(O)c1ccc(/N=N\c2c(O)ccc3cc(Br)ccc23)cc1	inactive: > 100 µM
CCOC(=O)c1ccc(NC(=O)SCCC(=O)O)cc1	inactive: > 100 µM
CCOC(=O)C(C)c1cc(C2(C)OCCO2)c(C)o1 (stereo not drawn)	inactive: > 100 µM
O/N=C(\C(=N/O)Nc1ccc(-c2ccc(NC(=N/O)/C(=N\O)c3ccccc3)cc2)cc1)c1ccccc1	inactive: 28.4 µM
CCOC(=O)C1=C(C)C2C3C(=O)OC(=O)C3C1(C)C1C(=O)OC(=O)C21 (stereo not drawn)	inactive: 76.4 µM
O=C1CCC(C(=O)O)C2=C1CCCC2 (stereo not drawn)	inactive: 20.3 µM

SMILES	GI50
CC(C)=CC1CC(=[N+]=[N-])C(=O)C1(C)C (stereo not drawn)	inactive: > 100 µM
CC(C1=CC=C2[C@@H]3CCC4CC(N(C)C)CC[C@]4(C)C3CC[C@]12C)N(C)C=O (stereo partly drawn)	inactive: > 100 µM
O=C(/C=C\c1ccccc1-c1ccccc1)c1ccccc1	inactive: > 100 µM
C/C=C(/CCC1NCCC2c3ccccc3NC12)[Si](C)(C)C (stereo not drawn)	inactive: 11.1 µM
N#CCCN(CCC#N)c1ccc(/C=C2\N=C(c3ccccc3)N(NC(=O)c3ccncc3)C2=O)cc1	inactive: > 100 µM
Cc1ccc(NC(=O)/C=C/c2ccccc2)c(C)c1	inactive: > 100 µM
Clc1ccc(-c2cc3nc4ccccc4nc3o2)cc1	inactive: > 100 µM
O=C1CS(=O)(=O)C(c2cccc(Oc3ccccc3)c2)N1c1ccc(Cl)cc1 (stereo not drawn)	inactive: 42.9 µM
CC(C)N1[C@@H]2CCCC[C@H]2N(C(C)C)P1(=O)C(=O)/C=C/c1ccccc1	inactive: 3.38 µM
O=C1c2ccccc2C(=O)c2sc(Nc3ccccc3Cl)nc21	inactive: 15.3 µM
O=C(CC(O)(c1ccccc1)c1ccc(Cl)cc1)NC(=O)c1ccccc1O (stereo not drawn)	inactive: 5.19 µM
CC(=O)OC1CC2C(=O)CC1(C)C2(C)C (stereo not drawn)	inactive: > 100 µM
CN(C)c1ccc(C(c2ccc(Cl)cc2)c2ccc(N(C)C)cc2)cc1	inactive: > 100 µM
CCOc1ccc(NC(=O)CCC(=O)NN)cc1	inactive: > 100 µM
O=C1C=C2CC[C@H]3[C@@H]4CC[C@H](Oc5c6ccccc6nc6ccccc56)[C@H]4CC[C@@H]3[C@H]2CC1	inactive: 55.8 µM
Cc1cccc2c(N)c3cccc(C(=O)NCC[N+](C)(C)Cc4c([N+](=O)[O-])ncn4C)c3nc12	inactive: 40.6 µM
O=C1CCC(=O)N2CCCCN12	inactive: > 100 µM
COC(=O)C(C(=O)C(=O)Nc1c(Cl)cc([N+](=O)[O-])cc1Cl)c1nc2cc(C)c(C)cc2nc1O (stereo not drawn)	inactive: > 100 µM
Oc1ccc(/N=C/c2ccc(/C=N/c3ccc(O)cc3)cc2)cc1	inactive: 15.5 µM
O=C1Nc2ccc(Br)cc2/C1=N/S(=O)(=O)O	inactive: 75.5 µM
CC(C)=CCOc1ccc(-c2coc3cc4c(c(O)c3c2=O)C=CC(C)(C)O4)cc1	inactive: 61.5 µM
CC(C)C(C/C=C1\CC(CO)(COC(=O)C(C)(C)C)OC1=O)C(C)C (stereo not drawn)	inactive: 11.7 µM
Cc1cc(NS(=O)(=O)c2ccc(NC(=O)c3ccc(Cl)c4c(Nc5ccc(S(=O)(=O)Nc6cc(C)on6)cc5)c5ccccc5nc34)cc2)no1	inactive: 19 µM
O=C1OC(CN2CCN(c3ccccc3)CC2)CN1C(=S)Nc1ccccc1 (stereo not drawn)	inactive: > 100 µM

SMILES	GI50
C[C@]12Cc3cnc(-c4ccccc4)nc3C[C@@H]1CC[C@@H]1[C@@H]2CC[C@@]2(C)[C@H]1CC[C@]2(C)O	inactive: 12.4 µM
C#CC1=CC(=O)C(OC)=CC1=O	inactive: > 100 µM
O=C(Cc1ccccc1)N[C@@H]1COC(=O)C2CCCN2C(=O)[C@@H]2CCCN2C1=O (stereo partly drawn) (PhAc-[dS]-Pro-[ξP]; ester 1-C)	inactive: > 100 µM
COc1cc(OC)c2c(=O)c(O)c(-c3ccc(OC)c(OC)c3)oc2c1	inactive: 5.19 µM
O=C1C(c2c(O)[nH]c3ccc(I)cc23)=Nc2ccccc21	inactive: 4.22 µM
O=C1Nc2ccccc2/C1=C\c1c(-c2ccccc2)nc2n1CCS2	inactive: 23.1 µM
OCC1OC(n2cnc3c(Cl)nc(Nc4ccc(Cl)c(Cl)c4)nc32)CC1O (stereo not drawn)	inactive: 15.8 µM
COc1ccc([C@H]2[C@@H]3CCc4ccccc4C3=NN2C(N)=S)cc1OC	inactive: 90.2 µM
COC(=O)/C=C(\C)CCC1SC1(C)C (stereo not drawn)	inactive: > 100 µM
Cc1csc(NNC(=O)Nc2ccccc2)n1	inactive: > 100 µM
NC(CCOCCP(=O)(O)CCOCCC(N)C(=O)O)C(=O)O (stereo not drawn)	inactive: > 100 µM
CC(=O)Nc1ccc(C(=O)N2N=C(C)/C(=C/c3cccc([N+](=O)[O-])c3)C2=O)cc1	inactive: > 100 µM
CNC(=O)N1CCN(C(=O)NC)CCN(C(=O)NC)CC1	inactive: > 100 µM
CC(=O)/C=N/CC(=O)O	inactive: > 100 µM
CS(=O)(=O)Nc1ccc(Nc2ccnc3ccc4[nH]ccc4c23)cc1	inactive: 5.92 µM
O=C1Nc2ccccc2S/C1=C\c1cccc(C(F)(F)F)c1	inactive: > 100 µM
O=C1c2cc([N+](=O)[O-])cnc2S(=O)(=O)N1c1ccc(Br)cc1	inactive: > 100 µM
Cc1ccc(C2SCC(=O)N2c2ccc(-c3ccc(-n4c(-c5ccccc5)nc5ccccc5c4=O)cc3)cc2)cc1 (stereo not drawn)	inactive: > 100 µM
Cn1c2cccc3nnc4cccc(c4c32)n1C	inactive: > 100 µM
CC1=CC(/C=C(\C)CCCc2ccoc2)C2(OC(=O)C(C)=C2O)[C@H]2C1CC[C@@H]2C (stereo partly drawn)	inactive: 24.6 µM
COC(=O)c1cc(NC(=O)c2cc(NC(=O)Cc3c[nH]c4ccccc34)cn2C)cn1C	inactive: 17.8 µM
C=C1CCCC(C)(C)C1CCC1(C)CCC(C(C)C(=O)OC)OO1 (stereo not drawn)	inactive: 8.59 µM
O=C1CNNC(Cn2nc(-c3ccccc3)c3ccccc3c2=O)=N1	inactive: > 100 µM
O=C(O)COc1ccc(C(=O)/C(SS/C(C(=O)c2ccc(OCC(=O)O)c(Cl)c2Cl)=C2\C=C(c3ccccc3Cl)SS2)=C2/C=C(c3ccccc3Cl)SS2)c(Cl)c1Cl	inactive: 78.7 µM

SMILES	GI50
COP(=O)(OC)C12CCOCCN1c1ccccc1C2=O (stereo not drawn)	inactive: > 100 µM
O=C(CNc1ccc(Cl)cc1Cl)NC1C=Cc2ccc(S(=O)(=O)Nc3ccc(Cl)cc3Cl)cc2C1=O (stereo not drawn)	inactive: > 100 µM
CC(NC(=O)C(N)CC(=O)O)NC(=O)N(C)C(C)(C)C (stereo not drawn)	inactive: > 100 µM
CCCCNC(=O)Nc1c(C(N)=O)c2n(c1C(=O)OCC)CCCCC2	inactive: > 100 µM
Nc1ccc2nc3ccc(N)cc3[n+](-c3ccccc3)c2c1	inactive: 85.7 µM
O=C(CC/C=C(/CS(=O)(=O)c1ccccc1)S(=O)(=O)c1ccccc1)c1ccccc1	inactive: > 100 µM
CCOC(=O)c1c(CN2CCCC2)n(-c2ccccc2)c2cc(Br)c(OC)cc12	inactive: 21.2 µM
COc1cc(OC)c2c3c(OC)cc(OC)c4c(=O)c(O)c(C[C@@H](C)O)c(c5c(C[C@@H](C)O)c(O)c(=O)c1c25)c43	inactive: 26.5 µM
COc1cc2nc3c(=C(C#N)C#N)c4ccccc4n3c(=O)c2cc1OC	inactive: > 100 µM
Cc1cc2c(C(C)C)c(O)c(O)c(C=O)c2c(O)c1-c1c(C)cc2c(C(C)C)c(O)c(O)c(C=O)c2c1O	inactive: 2.79 µM
CC1CCc2c(sc3ncnc(N/N=C/c4ccc(Cl)cc4)c23)C1 (stereo not drawn)	inactive: 39.4 µM
O=C1c2nn(-c3ccccc3)nc2C(c2ccccc2)N1c1ccccc1 (stereo not drawn)	inactive: > 100 µM
O=C(O)C(CCc1ccccc1)N1C(=O)c2ccccc2C1=O (stereo not drawn)	inactive: > 100 µM
O=CC12c3ccccc3C(c3ccccc31)C1C(=O)NC(=O)C12 (stereo not drawn)	inactive: > 100 µM
CC(=O)O[C@H]1[C@@H](OC2CCCC2(c2ccccc2)c2ccccc2)O[N+]([O-])=C[C@@H]1c1ccccc1 (stereo partly drawn)	inactive: 15.1 µM
CCOC(=O)c1c(N2CCOCC2)[nH]c(=O)c(C(c2ccc(N(C)C)cc2)c2c(O)c(C(=O)OCC)c(N3CCOCC3)[nH]c2=O)c1O	inactive: > 100 µM
COc1cc(C=C2C(=O)NC(=S)NC2=O)cc(OC)c1OC	inactive: > 100 µM
Cc1cccc2c1Oc1ccccc1C2NC(=O)c1ccc([N+](=O)[O-])cc1 (stereo not drawn)	inactive: 57.8 µM
CSc1ncc2c(C#N)c3n(C)c4ccccc4n3c(=O)c2n1	inactive: > 100 µM
COc1cc(C2c3cc4c(cc3[C@@H](NCCN(C)C)C3COC(=O)[C@H]23)OCO4)cc(OC)c1O (stereo partly drawn)	inactive: 3.1 µM
C=COCCCOc1ccccc1	inactive: > 100 µM
